# Laboratory results reported in article PMC4336329 (PLoS ONE, 2015).
# Out of some 310,000 compounds screened, about 14,000 (4.5%) showed an effect of 50% or more. Effects have a minus sign here. The list shows a part of the results.
# Biological target: human ether-à-go-go-related gene (hERG) potassium channel (human, UniProt Q12809)
# Assay: primary screen, population patch clamp on CHO cells stably expressing hERG
# 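Further: peak tail current of the secondary pulse compared with the same well before compound.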
# human ether-à-go-go-related gene (hERG) potassium channel, sequence (Q12809 whole entry, looked up): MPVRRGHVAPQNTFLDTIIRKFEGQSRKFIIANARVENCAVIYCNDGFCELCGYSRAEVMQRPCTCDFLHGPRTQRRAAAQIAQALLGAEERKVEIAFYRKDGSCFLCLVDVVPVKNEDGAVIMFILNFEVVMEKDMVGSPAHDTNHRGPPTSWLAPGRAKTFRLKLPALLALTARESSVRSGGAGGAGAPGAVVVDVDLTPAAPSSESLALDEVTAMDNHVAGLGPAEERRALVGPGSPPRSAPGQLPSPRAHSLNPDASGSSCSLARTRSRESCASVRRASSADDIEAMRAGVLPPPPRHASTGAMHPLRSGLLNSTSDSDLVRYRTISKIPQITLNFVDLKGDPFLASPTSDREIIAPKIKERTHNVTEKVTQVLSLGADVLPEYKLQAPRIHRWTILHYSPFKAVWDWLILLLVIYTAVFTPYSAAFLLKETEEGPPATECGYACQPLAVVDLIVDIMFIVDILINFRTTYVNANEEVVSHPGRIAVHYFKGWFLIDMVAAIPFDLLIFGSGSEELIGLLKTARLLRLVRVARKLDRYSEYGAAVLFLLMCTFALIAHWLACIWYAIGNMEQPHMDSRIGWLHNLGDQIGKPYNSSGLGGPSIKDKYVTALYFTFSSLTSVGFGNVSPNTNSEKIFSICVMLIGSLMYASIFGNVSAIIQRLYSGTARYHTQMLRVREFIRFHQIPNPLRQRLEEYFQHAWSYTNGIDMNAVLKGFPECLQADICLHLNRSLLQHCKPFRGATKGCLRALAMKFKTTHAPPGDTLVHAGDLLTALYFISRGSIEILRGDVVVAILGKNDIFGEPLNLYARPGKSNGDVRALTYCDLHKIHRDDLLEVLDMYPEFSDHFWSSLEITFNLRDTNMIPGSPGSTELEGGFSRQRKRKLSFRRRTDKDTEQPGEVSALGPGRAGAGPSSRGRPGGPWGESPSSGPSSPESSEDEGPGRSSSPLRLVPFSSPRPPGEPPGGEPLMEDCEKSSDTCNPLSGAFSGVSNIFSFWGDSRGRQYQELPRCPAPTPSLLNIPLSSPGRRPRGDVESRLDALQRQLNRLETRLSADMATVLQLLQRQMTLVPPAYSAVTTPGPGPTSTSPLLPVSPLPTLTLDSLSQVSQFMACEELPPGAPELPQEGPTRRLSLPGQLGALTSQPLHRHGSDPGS
row,SMILES,"hERG current change (%, negative = inhibition) at 10uM"
1,Cc1cccc(CN2CCN(C(=O)CN(C)C(C)C(=O)Nc3ccc(C(N)=O)cc3)CC2)c1 (stereo not drawn),4.51%
2,CC(=O)N1CCC(C(=O)Nc2nc(-c3ccccc3)ns2)CC1,-9.29%
3,COc1cc(NC(=O)Cn2cnc3sc(C)c(S(=O)(=O)N4CCN(C)CC4)c3c2=O)cc(OC)c1OC,19%
4,CCc1ccc(CNC(=O)c2nn(C)c3c2CS(=O)(=O)c2ccccc2-3)cc1,-22.2%
5,Cc1c(S(=O)(=O)N2CCN(C(c3ccccc3)c3ccccc3)CC2)c(=O)n(C)c(=O)n1C,-4.19%
6,COc1ccc(OC)c(C2C(C(=O)c3cccs3)=C(O)C(=O)N2CCN2CCOCC2)c1 (stereo not drawn),10.9%
7,COCCCN(Cc1cccs1)S(=O)(=O)c1c[nH]c(C(=O)OC)c1,-8.01%
8,COc1ccc(N2CCN(C(=O)c3ccccc3N(C)S(=O)(=O)c3ccc(C)cc3)CC2)cc1,2.94%
9,CCN1/C(=C/C(=S)Nc2ccccc2)Sc2ccccc21,20.4%
10,Cn1c(CNc2ccc(F)cc2)nnc1SCC(=O)NNC(=O)Cc1ccccc1,7.42%
11,O=C(C(NS(=O)(=O)c1cccc2nsnc12)c1ccccc1)N1CCN(c2ccccc2)CC1 (stereo not drawn),-71.4%
12,CCOc1cc([N+](=O)[O-])cc2c1C(=O)Nc1ccccc1O2,14.9%
13,COc1cc2[nH]c(=S)n(Cc3ccccc3)c(=O)c2cc1OC,11.4%
14,Cc1cccc(C(=O)NC(=S)Nc2ccc(S(=O)(=O)N3CCN(C)CC3)cc2)c1,1.59%
15,Cc1onc(-c2ccccc2Cl)c1C(=O)NC1CCCCCC1,4.05%
16,COc1ccc(NC(=O)CSc2nc3[nH]c(=O)cc(O)c3s2)cc1OC,1.5%
17,O=C(NCC(=O)N(Cc1ccccc1)C(C(=O)NC1CCCCC1)c1ccco1)c1ccco1 (stereo not drawn),-24.5%
18,O=C(NCc1cccc(C(F)(F)F)c1)C1CCN(c2ncccn2)CC1,-38.3%
19,Cc1cc(C(=O)NCCc2ccc(Cl)cc2)c2ccccc2n1,2.63%
20,COc1ccc(CCNC(=O)c2cccc([N+](=O)[O-])c2)cc1OC,-4.6%
21,O=C(/C=C/Nc1cccc(O)c1)c1ccccc1,2.04%
22,CCN(CC)C(=O)c1csc(Nc2ccc(C)cc2)n1,-34.8%
23,COc1ccccc1NC(=S)N1CCN(Cc2ccc3c(c2)OCO3)CC1,-1.31%
24,CCCCn1c(N)c(N(CCOC)C(=O)CSCc2cccc(C)c2)c(=O)[nH]c1=O,9.08%
25,CCCCCc1nnc(NC(=O)C2CCCO2)s1 (stereo not drawn),-1.64%
26,O=C(Cn1cc2c(n1)CCCC2)Nc1cc(-c2cccc(Cl)c2)no1,8.59%
27,C=C1c2cc(C)ccc2NC(=O)N1c1ccc(C)cc1,8.13%

row,SMILES,"hERG current change (%, negative = inhibition) at 10uM"
1,O=C(O)[C@@H]1CSC2c3ccccc3C(=O)N21 (stereo partly drawn),18.5%
2,CC(C)C(C)NC(=O)COc1ccc([N+](=O)[O-])cc1Cl (stereo not drawn),2.38%
3,CCCc1nnc(NC(=O)CCC(=O)N2CCN(Cc3ccc(C)cc3C)CC2)s1,-43.7%
4,COc1ccc(-c2cc3ccc(OCc4nn[nH]n4)cc3oc2=O)cc1,-6.46%
5,CN(C)CCNc1ccc(Cl)cc1[N+](=O)[O-],-18.7%
6,CCCN1C2CCCC1CC(NC(=O)NC13CC4CC(CC(C4)C1)C3)C2 (stereo not drawn),-41.5%
7,Cc1ccccc1NC(=O)C1C2CCCCC21 (stereo not drawn),6.99%
8,Cc1ccnc(NC(=O)C(C)n2cc([N+](=O)[O-])cn2)c1 (stereo not drawn),-3.83%
9,CC1CC(C)CN(S(=O)(=O)c2ccc3c(c2)oc(=O)n3CC(=O)N2CCOCC2)C1 (stereo not drawn),4.92%
10,CN1C(=O)[C@H]2[C@@H](C3CC3)N3C(=O)CN(CC4CC4)C(=O)[C@@]3(C)[C@H]2C1=O,16.9%
11,COC(=O)C1=C(c2ccc(OC)c(OC)c2)C[C@@H]2CC[C@H]1N2C(=O)NCCO,15.5%
12,O=C(COC(=O)c1ccccc1OCc1ccc(F)cc1)NCC1CCCO1 (stereo not drawn),-15.6%
13,CC(=O)Nc1ccc(S(=O)(=O)NC2(C(F)(F)F)NC(=O)N(Cc3ccccc3)C2=O)cc1 (stereo not drawn),13.1%
14,COc1cccc(CN(C)C(=O)c2ccc(NC(=O)CC3SC(N4CCCC4)=NC3=O)cc2)c1OC (stereo not drawn),3.2%
15,CCCCCOc1ccc(CSC2=NCCN2)cc1[N+](=O)[O-],-80.2%
16,Cc1nn(Cc2ccc(Cl)cc2)c(C)c1NC(=O)C1CC=CCC1C(=O)O (stereo not drawn),11.1%
17,O=C(Cn1ncc2c(=O)oc3ccccc3c21)NCCCN1CCCC1=O,1.85%
18,COc1cc(Cl)c(C)cc1NC(=O)COC(=O)/C=C/c1c(C)nn(C2CCS(=O)(=O)C2)c1Cl (stereo not drawn),8.93%
19,COC(CNC(=O)c1ccc2c(c1)ncn2-c1cccc(C)c1)OC,-2%
20,Cc1ccc(NC(=O)Cc2ccccc2Cl)cc1S(=O)(=O)N(C)C,0.299%
21,Cc1cc(C(=O)CN2CCCC2)c(C)n1-c1ccc(Cl)cc1,7.43%
22,CN(c1cccc(NC(=O)CN(c2ccc(Cl)c(Cl)c2)S(=O)(=O)c2ccccc2)c1)S(C)(=O)=O,-2.36%
23,O=C(Nc1ccccc1-c1ccccc1)c1ccccc1[N+](=O)[O-],12.2%
24,N#CCC(=O)Nc1ccc(C(=O)OCC(=O)N2CCCC2=O)cc1,18.1%
25,COc1ccc(-c2cc(CNS(=O)(=O)c3ccc(NC(C)=O)cc3)on2)cc1,18.6%
26,COc1ccc(-c2oc3cccnc3c2C#CC2(O)CCCCC2)cc1,-1.19%
27,CCc1nc2ccccc2n1CC(O)COc1ccc(NC(C)=O)cc1 (stereo not drawn),12.1%
